Where “and” joins values, the source holds several entries; their conditions need not be identical. Identical values can stand only once. Some of the results follow. Further columns of the screen follow, without active or inactive calls.

Our source for the activity change, negative = inhibition values is PubChem BioAssay AID1745853 (National Center for Advancing Translational Sciences (NCATS), 2022).

Holding throughout (assay): Primary Screen for Target Class Profiling of Small Molecule Inhibitors of Methyltransferases
Experiment [1] concerns the target Glycine N-methyltransferase (Homo sapiens) (UniProt Q14749). To be noted: purified enzyme, MTase-Glo SAH luminescence; measured here: GNMT inhibition; at 40 µM; stronger effect = lower value. An outline of the steps: (§1)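 Each enzyme was reacted with SAM and its substrate, with compounds tested once at 40 uM; SAH formed was read by MTase-Glo luminescence.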
In experiment [2] the target is Guanidinoacetate N-methyltransferase (Homo sapiens) (UniProt Q14353). To be noted: purified enzyme, MTase-Glo SAH luminescence; measured here: GAMT inhibition; at 40 µM; stronger effect = lower value. The method in brief: as §1
The target in experiment [3] is Histamine N-methyltransferase (Homo sapiens) (UniProt P50135). Particulars: purified enzyme, MTase-Glo SAH luminescence; measured here: HNMT inhibition; at 40 µM; stronger effect = lower value. The method in brief: as §1
For experiment [4], the target named is Nicotinamide N-methyltransferase (Homo sapiens) (UniProt P40261). To be noted: purified enzyme, MTase-Glo SAH luminescence; measured here: NNMT inhibition; at 40 µM; stronger effect = lower value. An outline of the steps: as §1
Experiment [5] addresses Phenylethanolamine N-methyltransferase (Homo sapiens) (UniProt P11086). To be noted: purified enzyme, MTase-Glo SAH luminescence; measured here: PNMT inhibition; at 40 µM; stronger effect = lower value. An outline of the steps:
as §1
% is set by controls: 0 for no effect and ±100 for the full control effect.

As to `O=C(CCc1nc(-c2cccnn2)no1)NC1CCCCCCC1`, the activity change, negative = inhibition was -3.23% in experiment [1]; -8.71% in experiment [2]; -1.06% in experiment [3]; -12.9% in experiment [4]; -7.49% in experiment [5].
Take `CC1CCCC(NC(=O)C2(C)Cn3c(cc4sccc43)C(=O)N2CCc2ccccc2)C1C` (stereo not drawn): the activity change, negative = inhibition is -5.55% in experiment [1]; 3.88% in experiment [2]; -3.67% in experiment [3]; -0.079% in experiment [4]; -4% in experiment [5].
Regarding `CN(C)C(=O)Oc1ccc[n+](C)c1`, the activity change, negative = inhibition in experiment [1] was determined as 2.27%; in experiment [2], 20.5%; in experiment [3], 6.96%; in experiment [4], 4.45%; in experiment [5], 7.88%.
In the case of `Nc1c2c(nc3ccccc13)CCCC2O` (stereo not drawn), the activity change, negative = inhibition in experiment [1] was 6.53%; in experiment [2] it was 10.6%; in experiment [3] it was -39.6%; in experiment [4], -5.47%; in experiment [5], 5.91%.
Regarding `CC(C)(O)C#Cc1ccc(-c2nccn2-c2cccc(-n3cncn3)c2)cc1`, the activity change, negative = inhibition in experiment [1] was -3.76%; in experiment [2], -4.87%; in experiment [3], -6.34%; in experiment [4], -7.7%; in experiment [5], -6.67%.
Take `Cn1c(=O)c2ccc(C(=O)NC3CCCC3)cc2n2c(=O)n(CC(=O)Nc3cccc(F)c3)nc12`: the activity change, negative = inhibition in experiment [1] was -0.771%; in experiment [2] it was 3.86%; in experiment [3] it was -1.03%; in experiment [4] it was -16%; in experiment [5], -0.992%.
Take `O=C(Cn1nc2n(CCc3ccccc3)c(=O)c3ccccc3n2c1=O)Nc1cc(F)ccc1F`: the activity change, negative = inhibition is 4.19% in experiment [1]; 2.07% in experiment [2]; 7.43% in experiment [3]; 5.35% in experiment [4]; 4.32% in experiment [5].
Regarding `CCC(C(=O)N1CCOCC1)n1ccc2cc(S(=O)(=O)N3CCCCC3)ccc21` (stereo not drawn), the activity change, negative = inhibition in experiment [1] was -2.07%; in experiment [2], 4.65%; in experiment [3] it was -3.21%; in experiment [4] it was -6.14%; in experiment [5], -0.856%.
The corresponding values for `COCCCNc1nc2c(-c3ccc(C)cc3)nnn2c2ccccc12` are -4.55%, 4.93%, -2.53%, 3.62% and -13.9%.
For the compound `Cn1c([C@H]2CCN(Cc3ccc4c(c3)OCO4)C2)nc2ccccc21`, the activity change, negative = inhibition in experiment [1] is -10.6%; in experiment [2], -7.05%; in experiment [3], -16.7%; in experiment [4] it was -19.6%; in experiment [5] it was -17.2%.
`CC1=C(C(=O)O)N2C(=O)[C@@H](NC(=O)C(N)c3ccccc3)[C@H]2SC1` (stereo partly drawn): the activity change, negative = inhibition in experiment [1] is 10.5%; in experiment [2], 13.9%; in experiment [3], 11.2%; in experiment [4] it was -8.17%; in experiment [5], -0.015%.
With `CC(=O)NCC(=O)N1CCC(c2cc(-c3ccc(F)cc3)n[nH]2)CC1`, the activity change, negative = inhibition in experiment [1] is -6.49%; in experiment [2], -5.46%; in experiment [3], -1.59%; in experiment [4], -9.38%; in experiment [5], -3.03%.
Take `COc1ccc(NS(=O)(=O)c2ccc3[nH]c4c(c3c2)CCCC4)cc1`: the activity change, negative = inhibition in experiment [1] is -9.92%; in experiment [2] it was -0.226%; in experiment [3], -3.99%; in experiment [4], -14%; in experiment [5], -3.17%.
As for `O=C(NC1CCCCC1)N1CCCCCC1c1nc(-c2ccncc2)no1` (stereo not drawn), the activity change, negative = inhibition in experiment [1] was -5.32%; in experiment [2], -10.7%; in experiment [3], -4%; in experiment [4], -8.44%; in experiment [5], -0.029%.
With `OC[C@H]1O[C@@H](OCc2ccccc2)[C@H](O)[C@@H](O)[C@@H]1O`, the activity change, negative = inhibition was 0% in experiment [1]; 3.88% in experiment [2]; 3.61% in experiment [3]; -6.69% in experiment [4]; 6.21% in experiment [5].
Consider `Cc1ccc(CN2C(=O)c3cc4oc(C)cc4n3CC2(C)C(=O)NC2CCCCC2)cc1` (stereo not drawn), for which the activity change, negative = inhibition in experiment [1] was 0.365%; in experiment [2], 0.908%; in experiment [3], 3.27%; in experiment [4], -0.097%; in experiment [5] it was -1.6%.
As for `CCOC(=O)c1cc2n(n1)CC(C)(C(=O)NC1CCCCC1)N(c1cc(OC)cc(OC)c1)C2=O` (stereo not drawn), the activity change, negative = inhibition in experiment [1] was -1.95%; in experiment [2], -1.43%; in experiment [3], -8.3%; in experiment [4], 0.56%; in experiment [5], 0.573%.
With `COc1cccc(CNC(=O)c2ncn3c2C(=O)N(C2CC2)C(C)(C(=O)NCc2ccccc2Cl)C3)c1` (stereo not drawn), the activity change, negative = inhibition was -8.84% in experiment [1]; 4.51% in experiment [2]; -3.47% in experiment [3]; -5.05% in experiment [4]; -0.282% in experiment [5].
Take `CCCCc1cn(CC2CCN(C(=O)c3ccsc3)CC2)nn1`: the activity change, negative = inhibition in experiment [1] is -3.33%; in experiment [2] it was -1.74%; in experiment [3], 0.623%; in experiment [4], -7.83%; in experiment [5], -1.67%.
Consider `CCN[C@@H]1C[C@H](N)[C@@H](O[C@H]2OC(CN)=CC[C@H]2N)[C@H](O)[C@H]1O[C@H]1OC[C@](C)(O)[C@H](NC)[C@H]1O`, for which the activity change, negative = inhibition in experiment [1] was 0.722% and -2.13%; in experiment [2], -12.7% and 5.28%; in experiment [3] it was -2.2% and 0.1%; in experiment [4], -18% and -6.38%; in experiment [5] it was -14.6% and -3.19%.
For `Cc1ccc(CN2C(=O)NC3(CCN(C(=O)c4cccc(Cl)c4)C3)C2=O)cc1` (stereo not drawn), the activity change, negative = inhibition was -1.37% in experiment [1]; -1.55% in experiment [2]; 1.57% in experiment [3]; -3.49% in experiment [4]; 1.49% in experiment [5].
Take `COCCN1C(=O)c2c(NC(C)=O)c3cc(OC)ccc3n2CC1(C)C(=O)NC1CCCCC1` (stereo not drawn): the activity change, negative = inhibition came to 5.82% in experiment [1]; 0% in experiment [2]; 10.4% in experiment [3]; 7.47% in experiment [4]; 4.31% in experiment [5].
In the case of `O=c1cc(-c2ccc(O)cc2)oc2cc(OC3OC(CO)C(O)C(O)C3O)c(C3OC(CO)C(O)C(O)C3O)c(O)c12` (stereo not drawn), the activity change, negative = inhibition is 7.31% in experiment [2], -9.36% in experiment [4] and -2.76% in experiment [5].
Consider `Cc1cccc(CCNC(=O)Cn2c(=O)oc3cc(S(=O)(=O)N4CCCC4)ccc32)c1`, for which the activity change, negative = inhibition in experiment [1] is -14.7%; in experiment [2], 5.64%; in experiment [3] it was -1.68%; in experiment [4], -2.9%; in experiment [5], -6.14%.
For `COc1ccc(CC(=O)Nc2ccc3c(c2)CN(CCOc2ccccc2)C(=O)C(C)O3)cc1` (stereo not drawn) the same measures were -2.15%, 0.253%, -5.29%, 0.57% and 3.62%.
For `O=C(NCc1ccnc2[nH]ccc12)c1cncc(Br)c1` the same measures were -9.27%, -10.3%, -10.2%, -14.2% and -8.62%.
For `O=C(C1CC1)N1CCN2C(=O)N(C3CCCCC3)C[C@H]2C1`, the activity change, negative = inhibition in experiment [1] is -5.82%; in experiment [2], -7.85%; in experiment [3], -3.3%; in experiment [4], -17.6%; in experiment [5], -9.33%.
Regarding `COC1CC(O[C@H]2CC[C@@]3(C)C(=CC[C@]4(O)C3[C@H](OC(C)=O)[C@@H](OC(=O)c3ccccc3)[C@]3(C)[C@@H](C(C)=O)CC[C@@]34O)C2)OC(C)C1OC1CC(OC)C(OC2CC(OC)C(OC3OC(C)C(OC4OC(CO)C(O)C(O)C4O)C(OC)C3O)C(C)O2)C(C)O1` (stereo partly drawn), the activity change, negative = inhibition was -0.735% in experiment [1]; -2.89% in experiment [2]; 1.84% in experiment [3]; -2.54% in experiment [4]; 3.96% in experiment [5].
The corresponding values for `O=Cc1ccc(-c2cc(C(F)(F)F)ccc2Cl)cc1` are -6.67%, -0.793%, -0.963%, -12% and -12.6%.
